Measured values reported in PubChem BioAssay (NCATS).
The list shows a part of the results. These are further read-outs of the screen, such as a control signal, another cell line or another target. No call is given for them. The list favours compounds with an active or inconclusive main result. The note in brackets gives the kind of curve behind each potency; many fits are weak.

Key:
[1] = Cell-based coincidence reporter assay to measure PMP22 gene transcription in S16 Pmp22-F2sN cells - Confirmatory screen (AID 1508646); conditions: S16 Schwann cells Pmp22-F2sN, dual luciferase, 24 h
Procedure, shortened: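 S16 rat Schwann cells carrying FLuc-2A-NLuc reporter in Pmp22 3' UTR (500-1,000 cells/well) treated with pinned compounds for 24 h at 37C. Dual-luciferase reads: FLuc luminescence first, then NLuc after Stop&Glo.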

[2] = qHTS Assay for Lipid Storage Modulators (AID 1519); conditions: Drosophila S3 cells, BODIPY lipid droplet/cell ratio, laser cytometry; measured here: lipid (BODIPY) channel AC50; cells loaded with oleic acid
Procedure, shortened: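 Cells seeded at 5,000 per well were treated with compounds over a concentration series and loaded with oleic acid (400 uM, as added). Lipid droplet fluorescence (488 nm excitation, 500-530 nm channel) was read by laser-scanning cytometry and normalized to 20 uM Triacsin C.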

[3] = measured here: FLuc reporter channel
[4] = measured here: NLuc reporter channel
Tags describe the fitted curve by direction and shape.

Row | Compound | AC50 [1, 3] | AC50 [1, 4] | AC50 [2]
1 | CC(=O)Nc1cccc(-c2nnc(SCC(=O)c3cc([N+](=O)[O-])ccc3Br)o2)c1 | 17.2 µM [falling, partial curve] | 17.2 µM [falling, partial curve] | –
2 | COC(=O)c1c(-c2ccc(Cl)cc2)noc1N1CCN(c2ccc(F)cc2)CC1 | 12.2 µM [falling, partial curve] | 13.7 µM [falling, partial curve] | –
3 | COc1ccc(NC(=O)Cn2c(=O)n(-c3cccc(C)c3)c(=O)c3c2c2cc(C)ccc2n3C)cc1Cl | 19.3 µM [falling, partial curve] | 7.69 µM [falling, partial curve, poor fit] | –
4 | CCN1CCN(CCCNC(=O)c2ccc3c(c2)sc2nc(-c4ccc(C)cc4)cn23)CC1 | 17.2 µM [falling, partial curve] | 17.2 µM [falling, partial curve] | –
5 | CCOc1ccc(CN2C(=O)C(=O)c3cccc(C)c32)cc1OC | 13.7 µM [falling, full curve, poor fit] | 15.3 µM [falling, partial curve, poor fit] | –
6 | COc1c(-c2coc3cc4c(cc3c2=O)CC(O)C(C)(C)O4)ccc2c1C=CC(C)(C)O2 (configuration not stated) | – | – | 0.0631 µM [falling, full curve]
7 | CCc1ccc(NC(=O)c2ccc3c(c2)c(C)c(C)n3Cc2ccccc2)cc1 | 7.69 µM [falling, partial curve, poor fit] | 13.7 µM [falling, full curve, poor fit] | –
8 | N=c1n(CCN2CCCCC2)c2ccccc2n1CC(O)COc1ccc(Cl)cc1Cl (configuration not stated) | 19.3 µM [falling, partial curve] | 21.7 µM [falling, partial curve] | –
9 | O=c1oc2ccccc2cc1-c1cn2cc(Cc3ccc(Br)cc3)sc2n1 | 21.7 µM [falling, partial curve, poor fit] | 21.7 µM [falling, partial curve, poor fit] | –
10 | COCCCn1c(=N)c(C(=O)NCc2ccco2)cc2c(=O)n3cccc(C)c3nc21 | 17.2 µM [falling, partial curve, poor fit] | 19.3 µM [falling, partial curve] | –
11 | COc1cccc(CNC(=O)c2cc3c(=O)n(C)c4ccccc4c3n2C)c1 | 24.3 µM [falling, single point] | 43.2 µM [falling, single point] | –
12 | Cc1ccc(S(=O)(=O)c2nnn3c2nc(NC2CCCCCC2)c2sccc23)cc1C | 13.7 µM [falling, partial curve] | 19.3 µM [falling, partial curve] | –
13 | COc1c(Cl)cc(Cl)cc1/C=C(\C#N)c1nc2ccccc2[nH]1 | 24.3 µM [falling, partial curve] | 34.3 µM [falling, partial curve] | –
14 | COc1ccc(Nc2c3c(nc4ccccc24)CCC3)cc1Cl | 19.3 µM [falling, partial curve, poor fit] | 27.3 µM [falling, partial curve] | –
15 | CCc1ccc(NC(=O)CC2C(=O)OCCN2CC)cc1 (configuration not stated) | 38.5 µM [falling, single point] | 43.2 µM [falling, single point] | –
16 | Cc1oc(-c2ccc(Cl)cc2)nc1CN1CCC(C(=O)NCCCN2CCN(c3cccc(Cl)c3)CC2)CC1 | 10.9 µM [falling, full curve] | 9.68 µM [falling, full curve] | –
17 | O=C(CCS(=O)(=O)c1nc(-c2ccc3c(c2)OCO3)cc(C(F)(F)F)n1)Nc1ccc(F)c(Cl)c1 | 17.2 µM [falling, partial curve] | 21.7 µM [falling, partial curve] | –
18 | CCCCC(CC)CNC(=O)c1ccc2c(=O)n(Cc3ccc(OC)cc3)c(=O)[nH]c2c1 (configuration not stated) | 5.44 µM [falling, full curve] | 10.9 µM [falling, partial curve, poor fit] | –
19 | COC(=O)c1c(-c2ccc(Cl)cc2)noc1N1CCN(c2ccc(C)cc2C)CC1 | 19.3 µM [falling, partial curve] | 19.3 µM [falling, partial curve] | –
